Measurements as given in PubChem BioAssay AID686979 (National Center for Advancing Translational Sciences (NCATS), 2013).
Hit rate of the full screen: of about 420,000 compounds, about 50,000 (12%) were called active. The inconclusive results got no clear call from the source; some entries with a clear call stand among them for comparison. Calls come from the whole dose curve; as a rule, active = well fitted inhibition curve with a large enough effect; inconclusive = small, poorly fitted or top-dose-only effect; inactive = flat fitted curve, though single readings scatter. No potency is given beside an inconclusive call; the fits are too rough.

Assay: qHTS for Inhibitors of human tyrosyl-DNA phosphodiesterase 1 (TDP1): qHTS in cells in presence of CPT; note: nearly all actives have a fitted effect of over 55% in size
Conditions: chicken DT40 Tdp1-/-;hTDP1 cells + 20 nM CPT, ATP luminescence, 48 h; activity change, negative = growth inhibition: at 46.2 µM (top of the series) unless noted
Outline: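 Cell growth measured by CellTiter-Glo luminescence after a minimum 48 h, 37 C compound exposure with 20 nM CPT in Tdp1-knockout DT40 cells stably expressing hTDP1, seeded 400/well; qHTS titration format.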
% is set by controls: 0 for no effect and ±100 for the full control effect; potency is the fitted concentration of half-maximal effect; tags give direction and shape of the fitted curve.

SMILES | Potency | activity change, negative = growth inhibition
COc1ccc(C(=O)c2ccc(CC(=O)O)s2)cc1 | inactive | 
COc1ccc2[nH]cc(CCNc3ccnc(-c4ccc5c(c4)OCO5)n3)c2c1 | inconclusive [inhibitor, single point] | 
CC(OC(=O)c1cccc(-n2cnnn2)c1)C(=O)NCc1ccccc1 (stereo unspecified) | inactive | 
COc1cc(NC(=O)c2cc(C3CC3)on2)c(OC)cc1Cl | inconclusive [inhibitor, single point] | 
CCc1sc(NC(=O)CN2CCOCC2)nc1-c1ccccc1 | inconclusive [inhibitor, partial curve, poor fit] | 
Cc1cc(C)n(CCC(=O)N2CCCC(N3CCN(c4cccc(Cl)c4)CC3)C2)n1 (stereo unspecified) | inconclusive [inhibitor, partial curve] | 
S=C(Nc1cccnc1)N1CCc2ccccc21 | inactive | 
COc1cc(O)c(C(CC(=O)N2CCN(c3ccccc3)CC2)c2cc(OC)c(OC)c(OC)c2)c(OC)c1 (stereo unspecified) |  | inconclusive: -30.3% [inhibitor]
CCCCn1cnc2c([nH]c3ccccc32)c1=O | inactive | 
Cc1cc(NC(=O)C2CCCN(S(=O)(=O)c3cnc[nH]3)C2)ccc1Br (stereo unspecified) | inconclusive [inhibitor, single point] | 
CCOC(=O)c1c(C)n(-c2ccccc2)c2ccc(OC(=O)c3ccccc3NC(=O)C(C)C)cc12 | inconclusive [inhibitor, single point] | 
CN(CC(=O)NCc1ccccc1Cl)S(=O)(=O)c1ccc2c(c1)n(C)c(=O)c(=O)n2C | inactive | 
CN1CCN(C2=NC(=O)/C(=C/c3ccccc3OS(=O)(=O)c3ccccc3)S2)CC1 | inactive | 
COc1ccccc1C1N(c2ccc(F)cc2)C(=O)C2CCCN21 (stereo unspecified) | inconclusive [inhibitor, partial curve] | 
CCOC(=O)c1cccc(NC(=O)CCCn2nc(C)c3c(C)n(-c4ccccc4)nc3c2=O)c1 | inconclusive [inhibitor, single point] | 
Cc1ccc(S(=O)(=O)NCC(=O)N2CCOCC2)cc1 |  | inconclusive: -33.4% [inhibitor]
CCCCn1nnnc1C(c1cc2ccccc2o1)N1CCCCC1 (stereo unspecified) | inconclusive [inhibitor, single point] | 
O=C1OC2(c3ccc(O)cc3Oc3cc(O)ccc32)c2ccccc21 | inconclusive [inhibitor, full curve, poor fit] | 
Cn1c(SCC(=O)Nc2ccccc2)nnc1-c1ccccc1 | inactive | 
COc1ccc(-c2nc3cc(C(C)C)ccc3o2)cc1NC(=O)c1ccccc1[N+](=O)[O-] | active: 8.2 µM | 
CC(C)CCOP(=O)(c1ccc(N(C)C)cc1)C(O)c1ccccc1F (stereo unspecified) | inconclusive [inhibitor, single point] | 
COc1cc(CCN2C(=O)c3cccc4cccc(c34)C2=O)c(S(=O)(=O)N2CCC(C)CC2)cc1OC | active: 25.9 µM | 
CC(=O)Nc1nc2ccc(C(=O)NCCOC(=O)C3CCCCC3)cc2s1 | inconclusive [inhibitor, partial curve, poor fit] | 

SMILES | Potency | activity change, negative = growth inhibition
COC(=O)c1ccc(C(c2c(C)n(C)n(-c3ccccc3)c2=O)c2c(C)n(C)n(-c3ccccc3)c2=O)cc1 | inactive | 
O=C(c1ccc(F)cc1)c1cc2ccc(O)cc2oc1=O | inconclusive [inhibitor, partial curve] | 
COc1ccc(NC(=O)C2COc3ccccc3C2)cc1Cl (stereo unspecified) | active: 18.4 µM | 
CCOc1ccc(N(Cc2cc3ccc(C)cc3[nH]c2=O)S(=O)(=O)c2ccccc2)cc1 | inconclusive [inhibitor, single point] | 
Cc1ccc(NC(=O)Nc2c(Cl)cccc2Cl)cn1 | inconclusive [inhibitor, partial curve] | 
Cn1c(N)c(C(=O)COC(=O)c2ccccc2C(=O)c2ccc(Cl)c([N+](=O)[O-])c2)c(=O)n(C)c1=O | inconclusive [inhibitor, single point] | 
CN(C)S(=O)(=O)c1cccc(NC(=S)N/N=C/c2cccc(O)c2)c1 | inconclusive [inhibitor, single point] | 
Cc1ccc(CSc2ccc(S(=O)(=O)N3CCCCC3)cn2)cc1 | inactive | 
COc1ccccc1CN(C)c1nnnn1-c1ccccc1 | inconclusive [inhibitor, single point] | 
Cc1ccccc1NC(=S)NCc1ccccc1 | active: 29.1 µM | 
Cc1ccc(Cn2c(CN3CCC(C(=O)NCc4ccccc4C)CC3)cc3ccccc32)cc1 | active: 20.6 µM | 
C=CCOC(=O)c1[nH]c2c(c1C)C(=O)CC(c1cc(OC)c(OC)c(OC)c1)C2 (stereo unspecified) | active: 20.6 µM | 
O=C(NCc1cccs1)c1ccc(Cl)s1 | inconclusive [inhibitor, single point] | 
CCCCNC(=O)C1CC(c2ccc(C(F)(F)F)cc2)=NO1 (stereo unspecified) | active: 18.4 µM | 
CN(C)c1ccc(-n2cc3c(=O)n(C)c(=O)n(C)c3c2)cc1 | inconclusive [inhibitor, single point] | 
CNC(=O)c1c(NC(=O)c2ccc(S(=O)(=O)N3CC(C)OC(C)C3)cc2)sc2c1CCN(C(C)C)C2 (stereo unspecified) | inconclusive [inhibitor, single point] | 
CCOc1ccccc1CNC(=O)CCn1c(=O)c2cccn2c2ccc(F)cc21 | inconclusive [inhibitor, single point] | 
CC1=Nc2ccc(Br)cc2C(c2ccccc2)N1CC(=O)NN (stereo unspecified) | inactive | 
Cc1nc(N2CCCC2)ncc1C(=O)NCc1cccc(Cl)c1 | inactive | 
COc1ccc(NC(=O)c2cccc(N3CCCS3(=O)=O)c2)cc1OC |  | inconclusive: -35.4% [inhibitor]
COc1cc(/C=C/C(=O)OCC(=O)NCc2cccs2)ccc1OCC#N | inactive | 
CCCn1c(=O)c2ccccc2n2c(SCCOc3ccc(OC)cc3)nnc12 | inconclusive [inhibitor, single point] | 
CCn1c(/C=C/c2ccc(O)c(O)c2)nc2ccccc2c1=O | inconclusive [inhibitor, single point] | 
